Reference: PubChem BioAssay AID1865 (National Center for Advancing Translational Sciences (NCATS), 2009)
About 540 (0.19%) of roughly 280,000 compounds were called active. Inconclusive means that the source gave no clear call. Such entries were picked first, then a sample of the others. Calls come from the whole dose curve; as a rule, active = well fitted activation curve with a large enough effect; inconclusive = small, poorly fitted or top-dose-only effect; inactive = flat fitted curve, though single readings scatter. Potencies beside an inconclusive call are fits to weak or partial responses and may not hold up.

Experiment: Quantitative High-Throughput Screen for Regulators of Epigenetic Control; note: nearly all actives have a fitted effect of over 60% in size; for GFP activation: % of control where 0% means no effect
Conditions: murine LDR cells, GFP reporter derepression, 30 h; GFP activation: at 53.9 µM (top of the series)
Procedure, shortened: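 GFP-positive cell count by laser-scanning cytometry (objects 20–120 um) after 30 h, 37 C compound exposure of murine LDR cells; reporter is CMV-GFP integrated at a silenced locus, inducible by HDAC or DNMT inhibitors.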
Potency is the fitted concentration of half-maximal effect; tags give direction and shape of the fitted curve.

| Compound | Potency | GFP activation |
| --- | --- | --- |
| CN(CCOc1ccccc1)CC(=O)Nc1ccc(Cl)c(S(=O)(=O)N(C)C)c1 | inactive | – |
| O=C(Nc1ccc(OC(F)(F)F)cc1)C1CCCN(S(=O)(=O)c2cccc3nonc23)C1 (configuration not stated) | inconclusive: 35.5 µM [activator, single point] | – |
| COc1ccc(OC)c(/C=C/C(=O)c2ccc(Cl)cc2)c1 | inconclusive: 31.6 µM [activator, single point] | – |
| CN(C)CCCN(C(=O)CCOc1ccccc1)c1nc2ccc(F)cc2s1 | inconclusive: 5.01 µM [activator, single point] | – |
| COC(=O)c1ccc2c(c1)C(C)(C)C(/C=C/c1ccc(OC)c(OC)c1OC)=[N+]2C | inactive | – |
| Nc1c(C(=O)Nc2ccc(F)cc2)sc2nc(-c3cccs3)cc(C(F)(F)F)c12 | inconclusive: 11.2 µM [activator, single point] | – |
| COc1ccc(C(=O)Nc2cccc(C(=O)OCc3cc(=O)n4nc(C5CC5)sc4n3)c2)cc1 | inconclusive: 31.6 µM [activator, single point] | – |
| COc1ccc(CNC(=O)c2sc3nc4n(c(=O)c3c2C)CCCC4)cc1 | inconclusive: 15.8 µM [activator, partial curve] | – |
| COc1cccc(Cc2nc3ccccc3nc2SCC(=O)Nc2cccc(C)c2)c1 | inconclusive: 0.141 µM [activator, full curve, poor fit] | – |
| N#CC(C#N)=C1C=CC=CN1/C(=C\c1ccccc1)C(=O)c1cccs1 | inconclusive: 25.1 µM [activator, single point] | – |
| Cc1cc(C)nc(N/N=C2/CCCC/C2=C\c2ccccc2)n1 | inconclusive: 35.5 µM [activator, single point] | – |
| CCOc1ccc(C2C(C(=O)/C=C/c3ccco3)=C(O)C(=O)N2CCN2CCOCC2)cc1OC (configuration not stated) | inactive | – |
| CCCn1c(C)cc(/C=C(\C#N)C(=O)OCC(=O)NC(=O)NC(C)(C)C)c1C | inconclusive: 17.8 µM [activator, single point] | – |
| COc1cccc2sc(NNC(=O)C3=COCCO3)nc12 | inconclusive: 31.6 µM [activator, single point] | – |
| CCc1ccccc1NC(=O)Cn1nc2c3cc(F)ccc3n(Cc3cccc(C)c3)cc-2c1=O | inconclusive: 35.5 µM [activator, single point] | – |
| COc1ccc2nc3oc(C(=O)Nc4ccc(OC)c(OC)c4)cc3cc2c1 | inconclusive: 35.5 µM [activator, single point] | – |
| COC(=O)C1=C(C)NC(=S)NC1c1ccc(-c2ccccc2C(=O)OC)o1 (configuration not stated) | inactive | – |
| COc1ccc(-c2cc(-c3ccc(C)cc3)nc3c2COc2ccccc2-3)cc1 | inconclusive: 28.2 µM [activator, single point] | – |
| COc1ccc(COc2ccsc2C(=O)Nc2ccc(Cl)c(Cl)c2)cc1 | inactive | – |
| CCn1cc(CNC(=O)c2cc(-c3ccc(C)cc3)nc3ccc(Br)cc23)c(C)n1 | active: 15.8 µM | – |
| Cc1ccc(NC(=O)C2(C)Cc3ccccc3C(=O)O2)c(C)c1 (configuration not stated) | inactive | – |

| Compound | Potency | GFP activation |
| --- | --- | --- |
| Cc1cc(-c2c(C)[nH]n(-c3ccccc3)c2=O)n[nH]1 | inconclusive: 31.6 µM [activator, single point] | – |
| CC(CCc1ccccc1)NC(=O)Cn1c(=O)nc(-c2ccccc2)c2cc(Cl)ccc21 (configuration not stated) | inactive | – |
| Cc1c(C(=O)N2CCC(C)CC2)sc2ncnc(N(C)c3ccccc3)c12 | inactive | – |
| COc1ccc(NS(=O)(=O)c2ccc(OC)c(NC(=O)CCC3CCCC3)c2)cc1 | inconclusive: 6.31 µM [activator, single point] | – |
| [O-]/C(=C(\C(=S)Nc1cccc2ccccc12)[n+]1ccccc1)c1ccc(OC(F)F)cc1 | inactive | – |
| O=C(Nc1cc(C(F)(F)F)ccc1Cl)C(Sc1cccc[n+]1[O-])c1ccccc1 (configuration not stated) | inconclusive: 25.1 µM [activator, single point] | – |
| COc1ccc2c(c1)c(=O)c(C(=O)c1ccccc1)cn2CC(=O)Nc1ccc2c(c1)OCO2 | inconclusive: 35.5 µM [activator, single point] | – |
| CCN(CC)c1ccc2cc(S(=O)(=O)c3ccc(Cl)cc3)c(=O)oc2c1 | inconclusive: 31.6 µM [activator, single point] | – |
| Cc1ccc(C(C)C)c(OCc2ccc(C(=O)N/N=C/c3cccc(O)c3O)cc2)c1 | inconclusive: 1.26 µM [activator, full curve] | – |
| O=C1C=C[C@@H](O)[C@H]2[C@@H]3C(=O)N(C[C@@H]4CCCO4)C(=O)[C@@H]3CC[C@H]12 | – | inactive: 0% [at 10.1 µM] |
| CCS(=O)(=O)c1ncc(Cl)c(C(=O)N2CCN(c3ccc(OC)cc3)CC2)n1 | inconclusive: 5.01 µM [activator, single point] | – |
| N#C/C(=C/c1ccc(-c2ccc(S(N)(=O)=O)cc2)o1)C(=O)Nc1ccccc1 | inconclusive: 28.2 µM [activator, single point] | – |
| CCC1CSC(Nc2ccc(C(=O)/C=C/c3ccc(Oc4ccccc4)cc3)cc2)=N1 (configuration not stated) | inconclusive: 31.6 µM [activator, single point] | – |
| Cc1ccnc(SCC(=O)c2ccc(Br)cc2)c1C#N | inconclusive: 28.2 µM [activator, single point] | – |
| Cc1ccc(CNS(=O)(=O)c2ccc(N3CCCCS3(=O)=O)cc2)cc1 | inconclusive: 3.55 µM [activator, single point] | – |
| CC(=O)c1cccc(NS(=O)(=O)c2cccc(C(=O)O)c2)c1 | inactive | – |
| CN1c2ccc(Cl)cc2-c2nc(SCC(=O)NCc3ccc(F)cc3)ncc2S1(=O)=O | inconclusive: 17.8 µM [activator, single point] | – |
| CC(C)(O)CNC(=O)Nc1ccc(Cl)c(Cl)c1 | inconclusive: 31.6 µM [activator, single point] | – |
| O=C1OC(c2ccccc2)=C/C1=C/N1CCCCC1 | inconclusive: 35.5 µM [activator, single point] | – |
| Cc1ccc(Cl)cc1NC(=O)Cn1c(=O)cc(C)c2c(C)nn(C)c21 | inactive | – |
| C=CCn1c(-c2ccc(OC)c(OC)c2)cs/c1=N\c1ccccn1 | inactive | – |
